Measurements published in PubChem BioAssay AID1458 (National Center for Advancing Translational Sciences (NCATS), 2008).
Out of some 210,000 compounds screened, about 5,900 (2.8%) were called active. Inconclusive results, whose numbers are uncertain, are shown with a selection of clear calls. Calls come from the whole dose curve; as a rule, active = well fitted activation curve with a large enough effect; inconclusive = small, poorly fitted or top-dose-only effect; inactive = no such curve, though single readings can be large or run the other way. Potencies beside an inconclusive call are fits to weak or partial responses and may not hold up.

assay: qHTS Assay for Enhancers of SMN2 Splice Variant Expression; details: HEK293 SMN2-luciferase splicing reporter, luminescence, 30-36 h; series mostly up to 46.1 µM; note: nearly all actives have a fitted effect of over 55% in size
Method in brief: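 HEK293 cells carry an SMN2 minigene-luciferase reporter in which exon 7 inclusion puts luciferase in frame. Cells were seeded at 2000 cells/well, attached for 10-12 hours, then exposed to compounds for 30-36 hours at 37C before ONE-Glo luminescence.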
Potency is the fitted concentration of half-maximal effect; tags give direction and shape of the fitted curve.

Structure (SMILES) | Potency
O=C(/C=C/c1ccccc1)Nc1cc(S(=O)(=O)N2CCOCC2)ccc1N1CCCC1 | inconclusive: 0.0251 µM [activator, full curve, poor fit]
CCCCCCNC(=O)C(C#N)c1nc2ccccc2nc1N1CCCC1 (stereo not given) | inconclusive: 5.62 µM [activator, partial curve, poor fit]
O=[N+]([O-])c1ccc(NCc2ccccc2)nc1 | inconclusive: 5.01 µM [activator, partial curve, poor fit]
CC(C)(C)C1CCC(=NNC(=O)C(=O)NC2CCCCC2)CC1 (stereo not given) | inconclusive: 0.005 µM [activator, full curve, poor fit]
COc1ccc(NC(=O)CSc2c3c(nc4ccc(Cl)cc24)CCCC3)cc1Cl | inactive
CS(=O)(=O)N(CC(=O)NCc1ccco1)Cc1ccc(Cl)cc1 | inconclusive: 0.0501 µM [activator, partial curve, poor fit]
Cc1ccc(S(=O)(=O)NC(=O)NCc2ccc3c(c2)OCO3)cc1 | inconclusive: 0.0063 µM [activator, full curve, poor fit]
O=C(CSc1nc(-c2ccccc2)[nH]c1-c1ccccc1)Nc1ccc2c(c1)OCO2 | inactive
Cc1ccc(/C=[N+](\[O-])c2ccc(N(C)C)cc2)c2nsnc12 | active: 10 µM
Cc1c(C(=O)Oc2ccc(-c3cnc4ccccc4n3)cc2)cccc1[N+](=O)[O-] | inactive
Cc1nc2sccn2c(=O)c1S(=O)(=O)Nc1ccc(N2CCN(S(C)(=O)=O)CC2)cc1 | inactive
NCCCC(N)(C(=O)O)C(F)F (stereo not given) | inconclusive: 5.62 µM [activator, single point]
COc1cccc(CNC(=O)CCc2nnc3n(CC(C)C)c(=O)c4ccccc4n23)c1 | inactive
CC1=NC(=O)C(N=Nc2ccccc2)N1c1ccccc1 (stereo not given) | active: 15.8 µM
CC(C)NS(=O)(=O)c1ccc2c3c(cccc13)CC2 | inconclusive: 12.6 µM [activator, partial curve]
CC1=CC(c2ccccc2)n2nc(N3C(=O)c4ccccc4C3=O)nc2N1 (stereo not given) | inconclusive: 1.12 µM [activator, full curve, poor fit]
CC1(C)NC(=O)N(CCCOc2ccc(Br)cc2Cl)C1=O | inconclusive: 6.31 µM [activator, full curve]
COc1ccc(-c2nc(-c3ccncc3)no2)cc1OC | inconclusive: 11.2 µM [activator, partial curve]
C=C1CCC2[C@](C)(CO)C(O)CC[C@]2(C)C1C/C=C1/C(=O)OCC1O (stereo not given in full) | inactive
CC(=O)CSc1nnc2c3ccccc3nc(C(C)(C)C)n12 | inconclusive: 2 µM [activator, single point]
C/C(=N/Nc1nc(-c2ccc(Cl)cc2)cs1)c1cccs1 | inconclusive: 7.08 µM [activator, partial curve]
Cc1cccc(NC(=O)CSc2nnc(N)s2)c1 | inconclusive: 0.0794 µM [activator, full curve, poor fit]
c1ccc2c(c1)NC1(CCCCCC1)n1c-2nc2ccccc21 | active: 10 µM
CCCCCCn1c(N2CCC(C)CC2)nc2c1c(=O)[nH]c(=O)n2C | inconclusive: 3.16 µM [activator, partial curve]
Cc1c(-c2cc(C(=O)O)c3ccccc3n2)cnn1C | inactive

Structure (SMILES) | Potency
Cc1cc(=O)n(-c2ccc3ccccc3n2)[nH]1 | inactive
Cc1cc(C)nc(SCC(=O)NCc2ccco2)n1 | inactive
CC(C)COc1ccc(C(=O)Nc2onc3c2CCCC3)cc1 | inactive
CCN(CC)c1ccc(NC2=C(Cl)C(=O)c3ccccc3C2=O)cc1 | inactive
CCOc1ccc(NC(=O)CCS(=O)(=O)c2cccc3nsnc23)cc1 | inconclusive: 0.0112 µM [activator, full curve, poor fit]
COc1ccc(-c2nsc(SCC(=O)Nc3cc(C)on3)n2)cc1 | inactive
CCC(C)NC(=O)c1c(N)n(/N=C/c2cccnc2)c2nc3ccccc3nc12 (stereo not given) | inactive
COc1cccc(-n2c(=O)c3c4c(sc3n(Cc3ccccc3C#N)c2=O)CCCC4)c1 | inactive
CC(=O)Oc1ccc2c(=O)c(N3C(=O)c4ccccc4C3=O)c(C)oc2c1 | inconclusive: 5.62 µM [activator, single point]
O=C(Cn1ncc(Cl)c(Cl)c1=O)c1ccc(Cl)cc1 | inconclusive: 22.4 µM [activator, single point]
Cc1ccc(NC(=O)C2=C(O)c3sccc3N(C)S2(=O)=O)cc1 | inconclusive: 14.1 µM [activator, single point]
Nc1ccc2oc(-c3ccccc3Cl)nc2c1 | active: 2.82 µM
COc1ccccc1NC(=O)CN1CCN(c2ccccn2)CC1 | inconclusive: 5.62 µM [activator, single point]
O=C(CCOc1ccccc1)Nc1ccccc1 | inactive
O=S(=O)(NCc1ccco1)c1ccc2c(c1)Cc1ccccc1-2 | inconclusive: 0.005 µM [activator, full curve, poor fit]
O=C(/C=C/c1ccccc1)Nc1ccc(N2CCCCC2)cc1 | inconclusive: 2.51 µM [activator, full curve]
c1c2c(cc3sc(N4CCOCC4)nc13)OCCO2 | active: 1.12 µM
CCN(CC)S(=O)(=O)c1ccc(C(=O)Nc2c3c(nn2C(C)(C)C)CS(=O)(=O)C3)cc1 | inactive
O=S(=O)(Nc1nc2ccccc2nc1N1CCc2ccccc2C1)c1ccc(Br)cc1 | inconclusive: 35.5 µM [activator, single point]
c1ccc2c(-c3csc(-c4ccncc4)n3)c[nH]c2c1 | active: 12.6 µM
O=C(CCSCc1cccc(Cl)c1)NCCc1ccccc1 | inconclusive: 2.82 µM [activator, partial curve]
O=C(Nc1nccs1)c1cc(Cl)ccc1[N+](=O)[O-] | inactive
Cc1cc(SCC(=O)c2cccs2)nc2ccccc12 | inconclusive: 22.4 µM [activator, single point]
Cc1cc(C(=O)CSc2ccc(Cl)cc2)cc(C)c1OC(=S)N(C)C | inactive
O=C(Cn1nc([N+](=O)[O-])nc1Br)NC(c1ccccc1)c1ccccc1 | inactive
